Measurements from the RNAGym collection of RNA variant scans (doi:10.1093/nar/gkz1192).
The source gives no read counts; variants with many changes may rest on few reads.

B1: CPEB3 Ribozyme (parent)
chain: UAACAGGGGGCCACAGCAGAAGCGUUCACGUCGCAGCCCCUGUCAGAUUCUGGUGAAUCUGCGAAUUCUGCUGUAUAUCUC

Variants of: B1
Assay: self-cleavage, relative activity (ratio to wild type); higher = more cleavage; in vitro, sequencing
Summary of the method: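 Relative activity compares each variant's cleaved/total read fraction with that of the unmutated ribozyme. To get these fractions, barcoded CPEB3 ribozyme libraries from rounds of error-prone PCR were transcribed with T7 RNA polymerase for 5 hours at 37°C and then given 15 min of DNase I treatment before EDTA was added. The RNAs were reverse transcribed with template switching and sequenced on Illumina, and DNA sequencing linked barcodes to variants. A minimum of 5 reads applied, and three batches were averaged.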

| Variant | self-cleavage |
| --- | --- |
| A3U U66C U80C | 0.55 |
| C4A A13G A15G U66C | 0.06 |
| C4A A13G A18G U25G A45U A64G | 0.05 |
| C4A A13G C17G U51A | 0.59 |
| C4A A15G A28U U60A U69C | 0.1 |
| C4A A15G A56U A77G | 0.62 |
| C4A C11U A20U U25C C32A C62A U72A | 0.05 |
| C4A C29U U41C U54C U60C | 0.2 |
| C4A G9A G22U U49C A56G U66C | 0.15 |
| C4A G10A C29G U49A U51C U58A U66C | 0.05 |
| C4A G19C A28U U51A | 0.08 |
| C4A G33U A57G | 0.15 |
| C4A G33U U67A | 0.22 |
| C4A G36U A45G U49C A65U | 0.12 |
| C4A U26A A35U A65G U66C | 0.19 |
| C4A U26A A47U | 0.53 |
| C4A U31A C40G U49C | 0.16 |
| C4A U51C U60C | 0.63 |
| C4G A5G U26C U58C | 0.09 |
| C4G A5U C14A U43A A45U | 0.96 |
| C4G A5U U43C U54C G63U | 0.64 |
| C4G A15U G63A A77C | 0.64 |
| C4G A18G C40U U43C | 0.24 |
| C4G A21G U31A A45U U80C | 0.11 |

| Variant | self-cleavage |
| --- | --- |
| C4G A35G U43C U54C C68U | 1.11 |
| C4G A56G A64G | 1.05 |
| C4G C11U A18G A20G C59U | 0.1 |
| C4G C12G U25G U41C A57G | 0.11 |
| C4G U41C U43C | 0.64 |
| C4U A5U U58C C71U | 0.57 |
| C4U A13G A57G | 0.79 |
| C4U A13U C32A U51A U67A | 0.29 |
| C4U A13U G19C | 0.47 |
| C4U A13U U72C | 1.08 |
| C4U A15G A56G | 1.12 |
| C4U A15G C40A A45G | 0.37 |
| C4U A15G G16U U66C | 0.36 |
| C4U A15G U72A U78C | 0.54 |
| C4U A18U C27A U54A G70C | 0.33 |
| C4U A18U U25A A35G A47G U49C | 0.07 |
| C4U A18U U69C | 0.55 |
| C4U A20G A35G A64U A75G | 0.51 |
| C4U A21G A45C A64G | 0.16 |
| C4U A21G C27A U60C U69A | 0.11 |
| C4U A21G U67C | 0.34 |
| C4U A28G A35G G42A A65G | 0.29 |
| C4U A28G U80A | 0.94 |
| C4U A28U U67C | 0.47 |

| Variant | self-cleavage |
| --- | --- |
| C4U A35G C37A U66C A75G | 0.28 |
| C4U A35G U41C U78A | 1.24 |
| C4U A35U U43C A57G A77G | 0.24 |
| C4U A65G U80C | 0.72 |
| C4U C11U A15G A56G U58A | 0.25 |
| C4U C23U C38A U41A U51C | 0.14 |
| C4U C23U U43C U76C | 0.15 |
| C4U C27U A56U U72C U80A | 0.18 |
| C4U C29U C34G | 0.17 |
| C4U C34A U41A A64G U78C | 0.14 |
| C4U C37U A65G U67C U69A | 0.15 |
| C4U G7A C12A A15C G19A U41C U72A | 0.06 |
| C4U G7A U31C A65G U67C U72G | 0 |
| C4U G7U A35G U43C U51C U58C | 0.22 |
| C4U G8C A28G | 0.09 |
| C4U G8U A18G U69C | 0.07 |
| C4U G9A U41A A57G U66A | 0.08 |
| C4U G9U A20U | 0.08 |
| C4U G10A C40A U60A C71U U74C | 0.06 |
| C4U G19C U25C G30C U31C A75G | 0.08 |
| C4U G19U A35U C50A U60A | 0.11 |
| C4U G30C U60C U74A | 0.2 |
| C4U U25A U41C U80C | 0.18 |
| C4U U25C A45U A56G U67C | 0.1 |

| Variant | self-cleavage |
| --- | --- |
| C4U U25C U51G | 0.59 |
| C4U U26A U49C U51C | 0.45 |
| C4U U26C A64G U80C | 0.65 |
| C4U U31A U43C U72A | 0.38 |
| C4U U31C A45G | 0.65 |
| C4U U41C G53A | 1.16 |
| C4U U41C U43C C50U U51C U54C A77U | 0.58 |
| C4U U60A U76A | 0.94 |
| C4U U69A U72A | 0.32 |
| A5C A13C C23U | 0.15 |
| A5C A13G A15G A18G A57U | 0 |
| A5C A13G A18U U26A U41C | 0.63 |
| A5C A13G A28C U48C | 0.19 |
| A5C A13G U54C U60C | 0 |
| A5C A13U A28G C40U A57G U60A U78A | 0.12 |
| A5C A13U U25C U41A U51A U72A U78C | 0.08 |
| A5C A13U U31C G33U U48C U58A U72C | 0.06 |
| A5C A15C A18G A28U A35G U60C | 0.34 |
| A5C A15C U41C U54G A57G A65G | 0.11 |
| A5C A15G A18G C23U A56G U78A | 0.12 |
| A5C A15G A18U U43A A64G | 0.63 |
| A5C A15G A20U U41C U51C A57G A75G | 0.23 |
| A5C A15G A47G | 1.14 |
| A5C A15G G55C A64G U72C | 1.07 |

| Variant | self-cleavage |
| --- | --- |
| A5C A15G U60C U78A | 0.33 |
| A5C A15U A18G U25C A47U U69A | 0.07 |
| A5C A18G G36C | 0.33 |
| A5C A18U G24U | 0.35 |
| A5C A20G G36U A45G | 0.13 |
| A5C A20G U72A | 0.32 |
| A5C A20U A28C A47U A56G U69A | 0.12 |
| A5C A20U A64G | 0.19 |
| A5C A21G U31C U41C U43C A65G | 0.26 |
| A5C A21U U69C | 0.44 |
| A5C A28G U69C A75G | 0.23 |
| A5C A28G U76C | 0.67 |
| A5C A28U A64U U78C | 0 |
| A5C A35G A47U U60C A77U | 0.14 |
| A5C A35G C38U U43A | 1.25 |
| A5C A35G C59A U69G U78C | 0.74 |
| A5C A35U C40G U54C | 0.33 |
| A5C A45G G63U U78C | 0.83 |
| A5C A47G U58C A77G | 0.81 |
| A5C A57G U58A | 0.18 |
| A5C C17U C23U A65U | 0.22 |
| A5C C37A A57U U78C | 0.18 |
| A5C C37G A45G U49C U54C | 0.29 |
| A5C G6C C12U A21G U78C C81U | 0.1 |

| Variant | self-cleavage |
| --- | --- |
| A5C G6C U41A G52A | 0.68 |
| A5C G6C U66C U67C C68U | 0.11 |
| A5C G6U C12A A65G G70A U72A | 0.24 |
| A5C G9A A18U A45G A64U | 0.04 |
| A5C G10A U26C C50U A57G U80A | 0.08 |
| A5C G10A U41A A47G | 0.06 |
| A5C G22A U26C U41C U69C G73A | 0.01 |
| A5C G36U U41A A47G | 0.13 |
| A5C U25C A35G U58C | 0.67 |
| A5C U25C U26C G63C | 0.37 |
| A5C U25C U67C | 0.15 |
| A5C U26C U31A | 0.25 |
| A5C U31A A56U U72C U74C | 0.31 |
| A5C U41A U43C U60C A75U | 0.08 |
| A5C U41A U67A | 0.12 |
| A5C U41C A45G U51A | 0.33 |
| A5C U54C A64G U80G | 1 |
| A5G A13C A28G | 0.44 |
| A5G A13G A18C U25C A57G A77G | 0.24 |
| A5G A13G A18U A65G U76G | 0.1 |
| A5G A13G A21G | 0.6 |
| A5G A13G A21G U60C A77G | 0.36 |
| A5G A13G A28U A35G U51A U54A U80C | 0.13 |
| A5G A13G A28U U51A C62U U80C | 0.09 |

| Variant | self-cleavage |
| --- | --- |
| A5G A13G A28U U51A U67A U80C | 0.27 |
| A5G A13G A45G A65G | 0.43 |
| A5G A13G A45G A65G U72A | 0.24 |
| A5G A13G A45U G55A U78C | 0.34 |
| A5G A13G A47G U54G U74A | 0.18 |
| A5G A13G A56G | 0.85 |
| A5G A13G A64G | 0.38 |
| A5G A13G C34U U80C | 0.48 |
| A5G A13G C62U G73A | 0.37 |
| A5G A13G C79U | 0.79 |
| A5G A13G G24A U41A A57G U66A | 0.04 |
| A5G A13G G33C | 0.5 |
| A5G A13G U31C A75G | 0.19 |
| A5G A13G U48C U60A A64U | 0.08 |
| A5G A13G U51A U72A | 0.33 |
| A5G A13G U69C | 0.07 |
| A5G A13G U80A | 0.57 |
| A5G A13U A20U G53A | 0.37 |
| A5G A13U A21G U31C A45U | 0.7 |
| A5G A13U A28C U66C | 0 |
| A5G A13U A35G U69A U78C | 1.01 |
| A5G A13U C23A C38G U41G U51C A77G | 0.11 |
| A5G A13U G30U U58C U78C | 0.21 |
